The results in this text go back to paper PMC10668032.

Some of the results follow. At the low end of the ranking the order means little.

The target of this experiment is SIX1 homeodomain (reference allele) (UniProt Q15475). The experiment in a line: universal protein binding microarray. Particulars: Universal all-10-mer PBM (8x60K, AMADID 030236), 300 nM GST-tagged protein, Alexa Fluor 488 anti-GST; buffer, salt, pH and temperature not stated; high values mean tight binding; most listed sequences are background and not binding sites; double strand, one strand shown.
For TAACTACA, the binding signal was -0.00081 E-score.
In the case of CACCGACG it was -0.0228 E-score; in that of GAACACTC, -0.204 E-score; in that of CCCTTACG, -0.091 E-score.
In the case of CACACATC it was -0.0882 E-score; in that of CATAACCA, -0.0237 E-score.
In the case of ATTGGAAC it was 0.00959 E-score.
On to GAACTATC, for which the binding signal was 0.23 E-score.
To GAGACCAC belongs 0.00277 E-score.
AGGTACAA: the binding signal is -0.227 E-score.
In the case of CAAGATTG it was -0.034 E-score.
In the case of ATCGAATA it was 0.182 E-score; in that of AGGCGTCC, -0.194 E-score; in that of ATTAGACA, 0.0637 E-score.
Consider CAGGCCTA, for which the binding signal is -0.00784 E-score.
In the case of CCGTGAGA it was 0.149 E-score; in that of CTGTAGCC, -0.124 E-score; in that of ATGAACTA, -0.041 E-score.
In the case of CGCATGGA it was 0.124 E-score; in that of AAAACTCC, -0.0835 E-score.
In the case of TGGGGCAA it was -0.205 E-score; in that of CAAACGGC, -0.179 E-score.
For GTATGGGA, the binding signal was 0.05 E-score.
In the case of TACGTACA it was 0.13 E-score; in that of CAGTAGAA, -0.0297 E-score.
In the case of AATCATAA it was -0.0401 E-score.
In the case of TGCCGAAA it was -0.202 E-score; in that of AAGGAGGT, -0.11 E-score; in that of AAAAGCCT, -0.267 E-score.
CGTTCGGA: the binding signal is -0.0504 E-score.
To AACAATGT belongs -0.173 E-score; to CCGCCTAC, -0.0588 E-score; to ACGAAACA, -0.039 E-score.
In the case of TAGACGAA it was -0.225 E-score.
Regarding TACGAAAA, the binding signal was -0.0244 E-score.
As for AGTCTGAT, the binding signal was found to be 0.19 E-score.
In the case of ATGCTGCG, the binding signal was -0.144 E-score.
In the case of CGGATCAC it was 0.463 E-score.
To CCAGGGGC belongs -0.202 E-score.
In the case of AGGTATAC it was 0.4 E-score; in that of GCTTGTCC, -0.163 E-score; in that of GACAAAGA, -0.0648 E-score.
In the case of ACCAGTGG, the binding signal was -0.0189 E-score.
For CGCTGCCG, the binding signal is -0.138 E-score.
To CGTTGTAG belongs -0.0454 E-score; to ACTCTTCA, -0.131 E-score; to ATAATCAA, -0.113 E-score.
Take GGAGGGAA: the binding signal was -0.122 E-score.
To ATGGCCTA belongs -0.0831 E-score.
To CTATAGGC belongs -0.108 E-score; to CAAGTCAC, -0.15 E-score.
To ATCAAGAC belongs 0.0793 E-score.
As to CAGACGAA, the binding signal is -0.097 E-score.
Consider GAACAACA, for which the binding signal is -0.17 E-score.
In the case of GCCGGAGA it was -0.0098 E-score; in that of ACTCGTTA, -0.0672 E-score; in that of AGCCAACT, -0.229 E-score.
To TGCTATAA belongs -0.183 E-score; to AAGCTGCT, -0.293 E-score.
With CCGTAACC, the binding signal was -0.0538 E-score.
In the case of CCGCAAAC it was 0.0548 E-score; in that of GCATTTCA, -0.162 E-score; in that of AACTTGAC, -0.104 E-score.
For ACCCTCTG, the binding signal was -0.00815 E-score.
In the case of CAGGCTCC it was -0.0533 E-score; in that of CACACCGA, 0.116 E-score.
To CGACGATC belongs 0.215 E-score.
To CGGGGATC belongs 0.396 E-score.
Consider GCAAAGAA, for which the binding signal is -0.14 E-score.
To AAATAGTC belongs 0.0496 E-score; to CAAAACCG, -0.163 E-score; to CCATCATA, 0.122 E-score.
On to AATTTAAC, for which the binding signal was -0.156 E-score.
As to CCTTGTAA, the binding signal amounted to 0.0139 E-score.
TGTGCACA: the binding signal was -0.212 E-score.
In the case of AAGATGTA it was 0.0744 E-score; in that of GTAGGATA, 0.355 E-score; in that of GCCCGGTA, 0.0524 E-score.
For the sequence ACTCGCCA, the binding signal was -0.12 E-score.
To ATTCCCCC belongs -0.00785 E-score; to AGTGCTAC, -0.0437 E-score.
To CAGGCATC belongs 0.116 E-score; to CTAGTGAG, 0.0595 E-score; to ATGGGATA, 0.36 E-score.
To CTACAGAG belongs -0.00194 E-score; to TGACCCCA, 0.198 E-score; to GAGATATA, 0.359 E-score.
Regarding ATCGAGGG, the binding signal was 0.163 E-score.
To AATACTGC belongs 0.162 E-score; to CCGCGTAG, 0.0672 E-score.
CAAGTTAG: the binding signal was -0.0412 E-score.
To AAGTTTCG belongs -0.279 E-score; to CCTTACAG, -0.118 E-score.
In the case of CATGTTAG it was -0.132 E-score; in that of ACTGCCAG, -0.128 E-score.
In the case of ATGAGGCA it was -0.246 E-score; in that of AACCAGGG, -0.00766 E-score; in that of TAGACCCA, -0.0788 E-score.
With CGAGTGTC, the binding signal is -0.00468 E-score.
To ATACGGGA belongs 0.367 E-score.
In the case of AGTTCGGA it was -0.136 E-score.
Consider AACGCCCC, for which the binding signal was -0.0812 E-score.
Turning to TCCAATCA, the binding signal is -0.23 E-score.
Regarding AGACAAGC, the binding signal is -0.17 E-score.
In the case of AAGTGACG it was -0.149 E-score.
In the case of AGGCGCCT it was -0.0587 E-score; in that of AACTTTTG, -0.294 E-score; in that of AGACTAAG, -0.0785 E-score.
To AGGTTCAT belongs -0.0209 E-score.
